Experimental findings from PubChem BioAssay AID1508642 (National Center for Advancing Translational Sciences (NCATS), 2021) are described below.

Out of some 43,000 compounds screened, about 200 (0.47%) were called active. About 12% were inconclusive and are not listed. Calls come from the whole dose curve; as a rule, active = well fitted cell-killing curve with a large enough effect; inconclusive = small, poorly fitted or top-dose-only effect, or effect the other way; inactive = flat fitted curve, though single readings scatter. The list shows a part of the results.
% is set by controls: 0 for no effect and ±100 for the full control effect.

The test is described as follows: Cell viability qHTS assay in S16 Pmp22-F2sN cells. Note: nearly all actives have a fitted effect of over 65% in size. The settings on record: S16 Pmp22-F2sN Schwann cells viability, CellTiter-Glo, 24 h; series mostly up to 57.5 µM; activity change, negative = cytotoxicity: at the top concentration. The method, boiled down:
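S16 Pmp22-F2sN Schwann cells (500-1,000/well) in phenol-red-free DMEM with 10% FBS received 23 nL compound by pin tool for 24 h at 37 °C. Viability was then read as CellTiter-Glo luminescence after 15 min at room temperature.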
Take `Cc1ccc2cccc(NC(=O)C(C)Oc3ccc(C)c(C)c3)c2n1` (stereo not drawn): the “activity change, negative = cytotoxicity” value was inactive: -0.447%.
Next, `Cc1ccc(C)c(Cn2c(SCC(=O)N(C)Cc3ccccc3)nc3ccccc32)c1`: inactive: -26.9%.
Take `CN(C(=O)CSc1nc2ccc(NC(=O)CCc3ccccc3)cc2s1)c1ccccc1`: the “activity change, negative = cytotoxicity” value is inactive: -12.5%.
Turning to `Cc1ccc(-c2nnc(Nc3ccc(S(N)(=O)=O)cc3)c3ccccc23)cc1S(=O)(=O)N1CCOCC1`, the “activity change, negative = cytotoxicity” value is inactive: -16.5%.
With `O=C(CSc1nc2ccccc2nc1Cc1ccc(Cl)cc1)N1CCN(c2ccccc2F)CC1` the figure was inactive: -4.29%.
`COc1ccc(C(=O)Nc2ccc3oc(-c4ccc(OC)cc4)nc3c2)cc1`: the “activity change, negative = cytotoxicity” value was inactive: 6.2%.
Next, `CCOC(=O)c1ccc(NC(=O)C2CC(=O)N(c3ccc(C(C)C)cc3)C2)cc1` (stereo not drawn): inactive: 25.7%.
Take `CCCC(=O)Nc1cc(-c2nc3cccnc3s2)ccc1C`: the “activity change, negative = cytotoxicity” value is inactive: -7.96%.
For the compound `CCc1cccc(NC(c2nnc(-c3ccccc3)o2)c2ccc(F)cc2Cl)c1` (stereo not drawn), the “activity change, negative = cytotoxicity” value is inactive: 1.47%.
For `COc1ccc2c(c1)Cc1sc(NC(=O)c3cccc(F)c3)nc1-2`, the “activity change, negative = cytotoxicity” value is inactive: -7.62%.
`Cc1cccc2c(=O)cc(CSc3ccccc3NC(=O)c3cccc(Br)c3)[nH]c12`: the “activity change, negative = cytotoxicity” value was inactive: -4.34%.
`COc1ccc(NC(=O)CSc2nc3nc(C)cc(C)n3n2)cc1OC`: the “activity change, negative = cytotoxicity” value is inactive: 1.66%.
Next, `O=C(CSc1ncc(CO)n1Cc1ccc(F)cc1)NCc1ccco1`: inactive: 15.5%; `COc1cc(O)ccc1-c1nc2cc(C)ccn2c1Nc1ccccc1C`: inactive: -0.438%.
Consider `Cc1ccc(N2CC(C(=O)NCc3nnnn3-c3ccc(C)c(C)c3)CC2=O)cc1C` (stereo not drawn), for which the “activity change, negative = cytotoxicity” value is inactive: 1.16%.
For `COc1cc(C(=O)NCC(c2ccc3c(c2)OCO3)N2CCN(C)CC2)cc(OC)c1OC` (stereo not drawn), the “activity change, negative = cytotoxicity” value was inactive: -3.61%.
Consider `COc1cccc2c1cc1c(=O)n(CC(=O)NCc3ccc(N(C)C)cc3)nc(C)n12`, for which the “activity change, negative = cytotoxicity” value is inactive: -2.08%.
With `COc1cccc(NC(=O)c2sc3nc(C)c(C(=O)Nc4ccc(C)cc4C)c(-c4ccc(C)o4)c3c2N)c1` the figure was inactive: 4.32%.
For `CCC1CCCCN1CCCNC(=O)c1c(C)oc2ncn(CC(C)C)c(=O)c12` (stereo not drawn), the “activity change, negative = cytotoxicity” value is inactive: 3.28%.
Take `O=c1n(Cc2ccc(Cl)cc2)nc2n1-c1ccccc1OC2`: the “activity change, negative = cytotoxicity” value is inactive: 21.3%.
With `CCOc1ccccc1NC(=O)NCc1noc2ccc(C)cc12`, the “activity change, negative = cytotoxicity” value is inactive: 1.31%.
`Cc1ccc(C)c(CSc2cn(CCNC(=O)c3cccs3)c3ccccc23)c1`: the “activity change, negative = cytotoxicity” value was inactive: -1.39%.
With `CCc1ccc(NS(=O)(=O)c2ccc(NC(=O)N3CCCC3)cc2)cc1` the figure was inactive: -0.503%; with `Cc1ccc(CSc2nc3cc(C(=O)NC4CCCC4)ccc3c(=O)n2Cc2ccccc2)cc1`, inactive: 10.5%.
Take `CC(CNC(=O)c1csc2c1CCCCC2)c1ccccc1` (stereo not drawn): the “activity change, negative = cytotoxicity” value is inactive: -12.3%.
Next, `O=C(Nc1cccc(O)c1)c1cc(-c2ccccc2F)no1`: inactive: 5.62%.
Consider `CCc1ccc(NC(=O)Cn2nnc(C(=O)Nc3ccc(F)cc3)c2N)cc1`, for which the “activity change, negative = cytotoxicity” value was inactive: -0.959%.
Consider `Cc1ccc(NC(=O)CCc2c(C)nc3ncnn3c2C)cc1Cl`, for which the “activity change, negative = cytotoxicity” value is inactive: 6.19%.
Consider `Cc1ccccc1NC(=O)Cn1nnc(C(=O)NCc2cccs2)c1N`, for which the “activity change, negative = cytotoxicity” value is inactive: -1.48%.
With `COc1cc(NC(=O)c2cc(S(=O)(=O)N3CCC(C)CC3)cn2C)cc(OC)c1OC`, the “activity change, negative = cytotoxicity” value was inactive: -7.18%.
With `CCOC(=O)C1CCCN(C(=O)Cn2ncc3c4ccccc4n(C)c3c2=O)C1` (stereo not drawn), the “activity change, negative = cytotoxicity” value is inactive: 9.21%.
For the compound `O=C(NCc1cccc(Cl)c1)c1ccc2c(Cl)c3c(nc2c1)CCCC3`, the “activity change, negative = cytotoxicity” value was inactive: -2.08%.
On to `COc1cccc(NC(=O)Cn2c(=O)n(CCCCC(=O)NCc3ccc4c(c3)OCO4)c(=O)c3ccccc32)c1`, for which the “activity change, negative = cytotoxicity” value was inactive: 13.4%.
Take `O=C(O)COc1ccccc1C1Nc2ccccc2-c2nnc(SCc3ccc(Cl)cc3)nc2O1` (stereo not drawn): the “activity change, negative = cytotoxicity” value was inactive: 6.66%.
As for `Cc1ccc(C)c(N2CCN(C(=O)C3CCC(CNS(=O)(=O)c4ccc(Br)s4)CC3)CC2)c1` (stereo not drawn), the “activity change, negative = cytotoxicity” value is inactive: -15.2%.
For the compound `CCOc1ccc(-c2cc(CCCC(=O)NCCc3ccc(OC)c(OC)c3)no2)cc1`, the “activity change, negative = cytotoxicity” value is inactive: 1.32%.
For the compound `Oc1cccc(Nc2cc(-c3ccccc3)ncn2)c1`, the “activity change, negative = cytotoxicity” value is inactive: 5.53%.
In the case of `CC(C)(C)C(=O)Nc1ccc2nc(SCCOc3ccccc3Cl)sc2c1`, the “activity change, negative = cytotoxicity” value is inactive: -0.143%.
As for `N#Cc1ccc(NC(=O)c2ccc3c(c2)nnn3C2CCCC2)cc1`, the “activity change, negative = cytotoxicity” value was inactive: 29.8%.
On to `CCCS(=O)(=O)N1CC(=O)N(c2cc(C)cc(C)c2)C(C)(C(=O)NC2CCCCCC2)C1` (stereo not drawn), for which the “activity change, negative = cytotoxicity” value was inactive: 12.1%.
With `CCOc1ccccc1C(=O)Nc1cc(-c2nc3cccnc3s2)ccc1C` the figure was inactive: -1.04%; with `CCC(Sc1ncnc2sc3c(c12)CCCC3)C(=O)OCC(C)C` (stereo not drawn), inactive: 6.43%; with `COc1ccc(Nc2oc(-c3ccc(COc4ccccc4)o3)nc2C#N)cc1`, inactive: 5.68%.
Regarding `CCCCN(Cc1ccco1)C(=O)c1cc2c(s1)-c1c(C)cccc1OC2`, the “activity change, negative = cytotoxicity” value is inactive: -29%.
For the compound `CCOC(=O)c1ccccc1NC(=O)c1nn(-c2ccc(C)cc2)c(=O)n(C)c1=O`, the “activity change, negative = cytotoxicity” value is inactive: 4.82%.
As for `CCc1ccccc1NC(=O)Cn1nnc(C(=O)Nc2ccc(OC)c(OC)c2)c1N`, the “activity change, negative = cytotoxicity” value was inactive: 0.381%.
In the case of `Cc1cc(C)c(S(=O)(=O)N2CCC(N3CCN(Cc4ccc(F)cc4)C(=O)C3=O)CC2)c(C)c1`, the “activity change, negative = cytotoxicity” value is inactive: -9.31%.
Consider `COC(=O)Cn1ccc2cc(S(=O)(=O)N3CCCCC3)ccc21`, for which the “activity change, negative = cytotoxicity” value was inactive: 0.423%.
With `Cc1ccccc1NC(=O)c1ccc(F)c(S(=O)(=O)N2CCc3ccccc3C2)c1` the figure was inactive: 7.54%; with `Cc1ccc(C(C)C)c(OCCCn2c(=O)oc3ccc(C)cc32)c1`, inactive: 3.2%; with `Cc1c(NC(=O)C(F)(F)F)ccc2nc3c(=O)n(C)c(=O)n(C)c3nc12`, inactive: 29.6%.
As for `CCc1ccccc1NC(=O)c1cnn(-c2ccc(F)cc2)c1C1CCNCC1`, the “activity change, negative = cytotoxicity” value is inactive: 0.68%.
With `COc1ccc(-n2ncc(C(=O)NCCCN3CCCCC3)c2C2CCN(C(=O)OC(C)(C)C)CC2)cc1`, the “activity change, negative = cytotoxicity” value is inactive: -13.1%.
Take `COc1ccc(-c2cc(-c3ccc4c(c3)NC(=O)CO4)nc3c2COc2ccc(C)cc2-3)cc1`: the “activity change, negative = cytotoxicity” value is inactive: 17.6%.
`COc1c(Cl)cc(Cl)cc1/C=C(\C#N)c1nc(-c2ccc(Cl)cc2)cs1`: the “activity change, negative = cytotoxicity” value was inactive: 1.34%.
Next, `CCOCCCNC(=O)Cn1cc2c(n1)-c1c(oc(C(=O)N3CCCC3)c1C)CC2`: inactive: 3.4%; `COc1ccc(-c2ccc(-c3noc(-c4cc(OC)cc(OC)c4)n3)c(OC)n2)cc1`: inactive: -3.71%; `CCOc1ccc2c(c1)c(=O)c(C(=O)c1ccc3c(c1)OCO3)cn2Cc1cccc(F)c1`: inactive: -15%.
For the compound `CCOc1ccc(-n2c(C)nc3cc(C(=O)NCc4ccc(C)cc4)ccc32)cc1`, the “activity change, negative = cytotoxicity” value was inactive: 0.579%.
In the case of `CC1CCCN(c2nc(-c3ccccc3O)nc3ccccc23)C1` (stereo not drawn), the “activity change, negative = cytotoxicity” value was inactive: 18.6%.
Take `O=c1c2c3c(sc2nnn1Cc1ccc(F)cc1)CCCC3`: the “activity change, negative = cytotoxicity” value is inactive: -0.561%.
With `Cc1ccc(C(=O)Nc2nnc(S(=O)(=O)N(C)Cc3ccc(F)cc3)s2)cc1` the figure was inactive: -17.7%; with `Cc1nnc(N2CCN(c3cccc(Cl)c3)CC2)c2c1nnn2Cc1ccc(F)cc1`, inactive: 1.75%.
